Assay results published in a collection of fitness landscapes (doi:10.1016/j.celrep.2020.107928).
The full ranking holds about 81,000 sequences; the median of “one-hybrid fitness for binding NBS DNA” is about -0.1, and the highest 2% start at about 0.36. The list shows a part of the results.

B1: Caulobacter ParB omega fusion; a variant is named by its letters at X, in order, B8GW30 (parent)
chain: MESVVVGEPGMSEGRRGLGRGLSALLGEVDAAPAQAPGEQLGGSREAPIEILQRNPDQPRRTFREEDLEDLSNSIREKGVLQPILVRPSPDTAGEYQIVAGERAWRAAQRAGLKTVPIMVRELDDLAVLEIGIIENVQRADLNVLEEALSYKVLMEKFERTQENIAQTIGKSXSHVANXMRLLXLPDEVQSYLVSGELTAXHARAIAAAADPVALAKQIIEGGLSVRETEALARKAPNLSAGKSKGGRPPRVKDTDTQALESDLSSVLGLDVSIDHRGSTGTLTITYATLEQLDDLCNRLTRGI

Variants of: B1
Assay: one-hybrid fitness for binding NBS DNA (the Noc-binding site; scaled: cognate 1, non-cognate 0); higher = stronger binding
Settings: with NBS DNA site
Summary of the method: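 Fitness is the rescaled log change in variant-to-wild-type read ratio, measured by Illumina sequencing of plasmids before and after bacterial one-hybrid selection. The scale puts cognate at 1 and non-cognate at 0. Selection of Caulobacter ParB libraries, four specificity codons randomised, took place in E. coli USO with a HIS3 reporter, site 19 bp from the promoter, over 48 hours at 37°C on M9-minus-histidine with 0.1 mM IPTG and 5 mM 3-AT.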

| Variant | one-hybrid fitness for binding NBS DNA |
| --- | --- |
| VLYT | ≤ 0.2 |
| GTQV | ≤ 0.2 |
| APIP | ≤ 0.2 |
| EFRN | ≤ 0.2 |
| NFRK | ≤ 0.2 |
| NFVS | ≤ 0.2 |
| VFEG | ≤ 0.2 |
| FLQC | ≤ 0.2 |
| ECRK | ≤ 0.2 |
| LGDC | ≤ 0.2 |
| AVLI | ≤ 0.2 |
| WHSC | ≤ 0.2 |
| GGMC | ≤ 0.2 |
| VLHR | ≤ 0.2 |
| NHKF | ≤ 0.2 |
| NPYG | ≤ 0.2 |
| THCV | ≤ 0.2 |
| AYLT | ≤ 0.2 |
| QLNS | 0.385 |
| VCQT | ≤ 0.2 |
| QLTA | 0.208 |
| HLRE | ≤ 0.2 |
| DPHL | ≤ 0.2 |
| EVTY | ≤ 0.2 |
| MANL | ≤ 0.2 |
| QNLS | ≤ 0.2 |

| Variant | one-hybrid fitness for binding NBS DNA |
| --- | --- |
| SIGR | ≤ 0.2 |
| RTPG | ≤ 0.2 |
| WFRT | ≤ 0.2 |
| PYCT | ≤ 0.2 |
| NINR | ≤ 0.2 |
| CRYE | ≤ 0.2 |
| RCCG | ≤ 0.2 |
| WVFR | ≤ 0.2 |
| MYCF | ≤ 0.2 |
| NARI | ≤ 0.2 |
| LHQR | ≤ 0.2 |
| QTAC | 0.239 |
| WTCS | ≤ 0.2 |
| LPLL | ≤ 0.2 |
| TSSA | ≤ 0.2 |
| PKSM | ≤ 0.2 |
| PRRN | ≤ 0.2 |
| MPEV | ≤ 0.2 |
| DTKL | ≤ 0.2 |
| SRIM | ≤ 0.2 |
| QWDR | ≤ 0.2 |
| AIHE | ≤ 0.2 |
| KVKQ | ≤ 0.2 |
| NVYS | ≤ 0.2 |
| IIEL | ≤ 0.2 |
| CMAC | ≤ 0.2 |

| Variant | one-hybrid fitness for binding NBS DNA |
| --- | --- |
| NLCG | ≤ 0.2 |
| RQWC | ≤ 0.2 |
| CTGT | ≤ 0.2 |
| HNTR | ≤ 0.2 |
| FQRV | ≤ 0.2 |
| GLHT | ≤ 0.2 |
| HRGL | ≤ 0.2 |
| TQYM | ≤ 0.2 |
| YTVS | ≤ 0.2 |
| PRKD | ≤ 0.2 |
| IAMY | ≤ 0.2 |
| NAIS | ≤ 0.2 |
| PDSR | ≤ 0.2 |
| DVES | ≤ 0.2 |
| KHSG | ≤ 0.2 |
| MSHG | ≤ 0.2 |
| YSGC | ≤ 0.2 |
| EYTS | ≤ 0.2 |
| CITI | ≤ 0.2 |
| RFRH | ≤ 0.2 |
| VSWK | ≤ 0.2 |
| HIGV | ≤ 0.2 |
| SRHT | ≤ 0.2 |
| PHQM | ≤ 0.2 |
